SMILES strings stand for the structures. Some of the results follow.

Data on 29 molecules can be found in the antibiotic and cytotoxicity screens of Wong et al. (2023).

In one assay the test system is HSkMC. The assay is described as follows: cytotoxicity call (relative viability < 0.9). The settings on record: 10 µM.
Another assay relates to HepG2. The assay is described as follows: cytotoxicity call (relative viability < 0.9). The note with it: 10 µM.
A further assay has as its system S. aureus RN4220. The assay is described as follows: growth inhibition call (relative growth <= 0.2). The note with it: 50 µM.

`Cc1ccc(S(=O)(=O)N(C)C[C@H]2Oc3c(NC(=O)c4cc(C)nn4C)cccc3C(=O)N([C@H](C)CO)C[C@@H]2C)cc1`: the cytotoxicity call in the assay with HSkMC and in the assay on HepG2 was “inactive” in each case. Moreover, the growth inhibition call with S. aureus RN4220 is “inactive”.

Regarding `CC(C)NC(=O)Nc1cccc2c1O[C@H](CN(C)S(=O)(=O)c1ccccc1)[C@H](C)CN([C@H](C)CO)C2=O`, the cytotoxicity call in the assay on HSkMC and in the assay on HepG2 was “inactive” throughout. Moreover, in the assay with S. aureus RN4220, the growth inhibition call was “inactive”.

As for `CN1CCN(C(=O)C[C@H]2C=C[C@@H](NC(=O)Cc3ccccn3)[C@@H](CO)O2)CC1`, the cytotoxicity call in the assay on HSkMC and with HepG2 was “inactive” throughout. In addition, in the assay with S. aureus RN4220, the growth inhibition call is “inactive”.

For `COC(=O)CSc1cc(C)nc(N)n1`, the cytotoxicity call in the assay on HSkMC and with HepG2 was “inactive” each time. Also, the growth inhibition call in the assay with S. aureus RN4220 was “inactive”.

`COc1ccc2c3c(n(c2c1)C)[C@@H](CO)N(C[C@]13CCN(CC1)S(=O)(=O)c1cn(cn1)C)C(=O)Nc1ccc(cc1)F`: the cytotoxicity call with HSkMC and with HepG2 was “inactive” throughout. In addition, the growth inhibition call with S. aureus RN4220 is “inactive”.

As to `Cc1noc(C)c1S(=O)(=O)N(C)C[C@H]1Oc2ccc(NC(=O)Nc3ccc4c(c3)OCO4)cc2CC(=O)N([C@@H](C)CO)C[C@@H]1C`, the cytotoxicity call with HSkMC and with HepG2 was “inactive” throughout. For the same molecule, the growth inhibition call in the assay on S. aureus RN4220 was “inactive”.

Consider `C[C@@H]1CCCCO[C@@H](CN(C)Cc2ccc(C(=O)O)cc2)[C@@H](C)CN([C@@H](C)CO)C(=O)c2cc(NC(=O)NC3CCCCC3)ccc2O1`, for which the cytotoxicity call with HSkMC and with HepG2 was “inactive” in each case. The growth inhibition call with S. aureus RN4220 was “inactive”.

For the molecule `CCc1nc2ccc(C(=O)Nc3cccc(OC)c3)cn2c1N(CC)Cc1cccc(Br)c1`, the cytotoxicity call in the assay with HSkMC and with HepG2 was “inactive” throughout. Further, the growth inhibition call in the assay on S. aureus RN4220 was “inactive”.

On to `O=C(C[C@@H]1C=C[C@H](NC(=O)Nc2ccc3c(c2)OCO3)[C@H](CO)O1)NCCCN1CCOCC1`, for which the cytotoxicity call in the assay on HSkMC and with HepG2 was “inactive” each time. For the same molecule, the growth inhibition call in the assay with S. aureus RN4220 was “inactive”.

On to `C[C@@H]1CN([C@@H](C)CO)C(=O)c2cc(NC(=O)Nc3ccc(F)cc3)ccc2O[C@@H](C)CCCCO[C@H]1CN(C)Cc1ccc(C(F)(F)F)cc1`, for which the cytotoxicity call in the assay with HSkMC was “inactive”. In addition, the cytotoxicity call in the assay with HepG2 was “active”. Also, the growth inhibition call in the assay on S. aureus RN4220 is “inactive”.

As to `O=C(CS)NCCCCCNC(=O)[C@@H]1C[C@@H]2C(=O)NCC(=O)N2[C@@H]1c1cccc(OCCO)c1`, the cytotoxicity call in the assay with HSkMC and in the assay on HepG2 was “inactive” in each case. The growth inhibition call with S. aureus RN4220 is “inactive”.

For the molecule `C[C@@H]1CN([C@@H](C)CO)C(=O)c2cccc(NC(=O)Nc3cccc4ccccc34)c2O[C@H]1CN(C)S(=O)(=O)c1cccc(F)c1`, the cytotoxicity call in the assay on HSkMC and with HepG2 was “inactive” each time. Also, in the assay on S. aureus RN4220, the growth inhibition call was “inactive”.

`C[C@H](CO)N1C[C@H](C)[C@H](CN(C)C(=O)Nc2cccc3ccccc23)OCc2cn(nn2)CCCC1=O`: the cytotoxicity call in the assay on HSkMC and with HepG2 was “inactive” throughout. Also, in the assay with S. aureus RN4220, the growth inhibition call is “inactive”.

As to `COc1ccc(S(=O)(=O)Nc2ccc3c(c2)C(=O)N([C@@H](C)CO)C[C@@H](C)[C@@H](CN(C)Cc2ccc(C(F)(F)F)cc2)OCCCC[C@H](C)O3)cc1`, the cytotoxicity call in the assay on HSkMC and in the assay on HepG2 was “inactive” throughout. For the same molecule, the growth inhibition call in the assay with S. aureus RN4220 is “inactive”.

`Cc1ccc(S(=O)(=O)Nc2ccc3c(c2)CC(=O)N([C@H](C)CO)C[C@H](C)[C@H](CN(C)S(C)(=O)=O)O3)cc1`: the cytotoxicity call with HSkMC and with HepG2 was “inactive” in each case. Besides, in the assay on S. aureus RN4220, the growth inhibition call is “inactive”.

As for `C[C@@H]1CCCCO[C@@H](CN(C)C(=O)CCC(F)(F)F)[C@@H](C)CN([C@H](C)CO)C(=O)c2cc(NC(=O)Nc3ccccc3)ccc2O1`, the cytotoxicity call in the assay with HSkMC and with HepG2 was “inactive” throughout. In the assay with S. aureus RN4220, the growth inhibition call was “inactive”.

Take `C[C@@H]1CN([C@H](C)CO)S(=O)(=O)c2ccc(C#Cc3ccc(F)cc3)cc2O[C@@H]1CN(C)CC1CC1`: the cytotoxicity call in the assay on HSkMC and with HepG2 was “inactive” throughout. The growth inhibition call in the assay on S. aureus RN4220 is “inactive”.

`Cc1noc(C)c1NC(=O)Nc1cccc2c1O[C@H](CN(C)S(C)(=O)=O)[C@@H](C)CN([C@@H](C)CO)C2=O`: the cytotoxicity call in the assay on HSkMC and in the assay with HepG2 was “inactive” each time. Besides, the growth inhibition call in the assay on S. aureus RN4220 is “inactive”.

For `Cc1ccc(S(=O)(=O)N(C)C[C@H]2OCCCC[C@H](C)Oc3ccc(NC(=O)Cc4ccccc4)cc3C(=O)N([C@@H](C)CO)C[C@H]2C)cc1`, the cytotoxicity call in the assay on HSkMC and with HepG2 was “inactive” in each case. Further, the growth inhibition call with S. aureus RN4220 was “inactive”.

As for `C[C@H](CO)N1C[C@H](C)[C@H](CN(C)C(=O)Nc2ccccc2)Oc2c(NS(=O)(=O)c3cn(C)cn3)cccc2C1=O`, the cytotoxicity call with HSkMC and in the assay on HepG2 was “inactive” each time. Further, the growth inhibition call in the assay with S. aureus RN4220 was “inactive”.

With `O=C(C[C@@H]1C[C@@H]2c3cc(NC(=O)Cc4ccncc4)ccc3O[C@@H]2[C@H](CO)O1)NCc1ccc2c(c1)OCO2`, the cytotoxicity call in the assay with HSkMC and with HepG2 was “inactive” throughout. The growth inhibition call with S. aureus RN4220 is “inactive”.

In the case of `C[C@@H]1CN([C@H](C)CO)C(=O)c2cc(C#Cc3ccncc3)cnc2O[C@H]1CN(C)C(=O)c1ccccc1F`, the cytotoxicity call in the assay on HSkMC and in the assay with HepG2 was “inactive” each time. For the same molecule, the growth inhibition call in the assay on S. aureus RN4220 was “inactive”.

As for `C[C@H]1CN([C@@H](C)CO)C(=O)CCCn2cc(nn2)CO[C@@H]1CN(C)S(=O)(=O)c1ccc(Oc2ccccc2)nc1`, the cytotoxicity call in the assay on HSkMC and with HepG2 was “inactive” in each case. Further, the growth inhibition call in the assay on S. aureus RN4220 is “inactive”.

For the molecule `CC(C)(C)c1ccc(NC(=O)N[C@H]2CCCc3ccccc32)cc1`, the cytotoxicity call with HSkMC is “inactive”. For the same molecule, in the assay on HepG2, the cytotoxicity call was “active”. The growth inhibition call with S. aureus RN4220 is “inactive”.

Turning to `C[C@@H]1CCCCO[C@H](CN(C)C(=O)NC2CCCCC2)[C@H](C)CN([C@@H](C)CO)C(=O)c2cc(NS(=O)(=O)c3cccs3)ccc2O1`, the cytotoxicity call in the assay on HSkMC and in the assay with HepG2 was “inactive” each time. For the same molecule, in the assay on S. aureus RN4220, the growth inhibition call is “inactive”.

With `C[C@@H]1CCCCO[C@@H](CN(C)S(=O)(=O)c2ccccc2)[C@H](C)CN([C@H](C)CO)C(=O)c2cc(NC(=O)NC3CCCCC3)ccc2O1`, the cytotoxicity call in the assay on HSkMC and in the assay on HepG2 was “inactive” each time. Besides, the growth inhibition call in the assay with S. aureus RN4220 was “inactive”.

On to `C[C@H]1NC(=O)N[C@@H]1CCCCC(=O)O`, for which the cytotoxicity call with HSkMC and with HepG2 was “inactive” in each case. Besides, the growth inhibition call in the assay with S. aureus RN4220 was “inactive”.

As for `C[C@H](CO)N1C[C@H](C)[C@@H](CN(C)C(=O)CN(C)C)Oc2cc(-c3ccc(C#N)cc3)ccc2S1(=O)=O`, the cytotoxicity call in the assay on HSkMC (human skeletal muscle cells) and in the assay with HepG2 was “inactive” each time. The growth inhibition call in the assay with S. aureus RN4220 is “inactive”.

For `CCCC(=O)Nc1ccc2c(c1)C(=O)N(C)C[C@H](OC)[C@@H](C)CN(S(=O)(=O)c1cn(C)cn1)[C@@H](C)CO2`, the cytotoxicity call with HSkMC and in the assay on HepG2 was “inactive” in each case. In addition, the growth inhibition call with S. aureus RN4220 was “inactive”.
